The labels stand for the following.
B1: TEV protease; numbered along this chain (parent)
chain: MGESLFKGPRDYNPISSSICHLTNESDGHTTSLYGIGFGPFIITNKHLFRRNNGTLVVQSLHGVFKVKDTTTLQQHLVDGRDMIIIRMPKDFPPFPQKLKFREPQREERICLVTTNFQTKSMSSMVSDTSCTFPSGDGIFWKHWIQTKDGQCGSPLVSTRDGFIVGIHSASNFTNTNNYFTSVPKNFMELLTNQEAQQWVSGWRLNADSVLWGGHKVFMVKPEEPFQPVKEATQL

The other results are listed elsewhere or left out. Sequences were assembled here from the parent chain. Values near 0.05 are background.

In this experiment the parent is B1. Description: raw area under fraction-flipped curve 0-4 h after induction (AUC4h, not background-subtracted), DNA-recorder readout of cleavage of the substrate (dimensionless); higher = more cleavage of the substrate by the protease variant. Conditions: temperature: 34 °C; time window: 0-4 h after rhamnose induction. How it is done:
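In vivo DNA recorder in E. coli TOP10(DE3) ΔrhaA at 34 °C. Each TEVp single-site mutant (parent TEVp 0) is paired with a single-site variant of the 7-mer TEVs (canonical ENLYFQ|S). The substrate sits between flexible linkers in a Bxb1-sfGFP-TEVs-SsrA fusion, so cleavage stabilises Bxb1 and speeds flipping of a recombination array, read by NGS. The value is the raw area under the fraction-flipped curve over 0-4 h after rhamnose induction (AUC4h), with ≥20 reads per time point. It is not background-subtracted; inactive controls average about 0.047.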
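Note: Bxb1 expression induced with 0.2% (w/v) L-rhamnose at OD600 near 0.5, cultures sampled hourly, flipped fraction per protease–substrate barcode pair counted by paired-end Illumina sequencing.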

In the case of MGESLFKGPRDYNPISSSICHLTNESDGHTTSLYGIGFGPFIITNGHLFRRNNGTLVVQSLHGVFKVKDTTTLQQHLVDGRDMIIIRMPKDFPPFPQKLKFREPQREERICLVTTNFQTKSMSSMVSDTSCTFPSGDGIFWKHWIQTKDGQCGSPLVSTRDGFIVGIHSASNFTNTNNYFTSVPKNFMELLTNQEAQQWVSGWRLNADSVLWGGHKVFMVKPEEPFQPVKEATQL [K46G], the “area with substrate ENLAFQS” value came to 0.0514, the “area with substrate ENLCFQS” value turned out to be 0.0669, the “area with substrate ENLDFQS” value turned out to be 0.0633 and the “area with substrate ENLEFQS” value turned out to be 0.057. Further, the “area with substrate ENLFFQS” value stood at 0.0664, the “area with substrate ENLGFQS” value turned out to be 0.0396, the “area with substrate ENLIFQS” value was 0.0807 and the “area with substrate ENLKFQS” value turned out to be 0.07. Moreover, the “area with substrate ENLLFQS” value was 0.0576, the “area with substrate ENLMFQS” value stood at 0.0704, the “area with substrate ENLPFQS” value is 0.0765 and the “area with substrate ENLRFQS” value stood at 0.0739. For the same variant, the “area with substrate ENLSFQS” value was 0.06, the “area with substrate ENLVFQS” value is 0.093 and the “area with substrate ENLWFQS” value was found to be 0.0522.
Regarding MGESLFKGPRDYNPISSSICHLTNESDGHTTSLYGIGFGPFIITNKHLFRTNNGTLVVQSLHGVFKVKDTTTLQQHLVDGRDMIIIRMPKDFPPFPQKLKFREPQREERICLVTTNFQTKSMSSMVSDTSCTFPSGDGIFWKHWIQTKDGQCGSPLVSTRDGFIVGIHSASNFTNTNNYFTSVPKNFMELLTNQEAQQWVSGWRLNADSVLWGGHKVFMVKPEEPFQPVKEATQL [R51T], the “area with substrate ENLAFQS” value came out at 0.0833, the “area with substrate ENLCFQS” value worked out at 0.0936, the “area with substrate ENLEFQS” value amounted to 0.0666 and the “area with substrate ENLFFQS” value is 0.0986. For the same variant, the “area with substrate ENLIFQS” value stood at 0.0903, the “area with substrate ENLNFQS” value is 0.0525, the “area with substrate ENLPFQS” value was 0.0449 and the “area with substrate ENLVFQS” value came out at 0.0813.
For the variant MGESLFKGPRDYNPISSSICHLTNESDGHTTSLYGIGFGPFIITNKHLFRRNNGTLFVQSLHGVFKVKDTTTLQQHLVDGRDMIIIRMPKDFPPFPQKLKFREPQREERICLVTTNFQTKSMSSMVSDTSCTFPSGDGIFWKHWIQTKDGQCGSPLVSTRDGFIVGIHSASNFTNTNNYFTSVPKNFMELLTNQEAQQWVSGWRLNADSVLWGGHKVFMVKPEEPFQPVKEATQL [V57F], the “area with substrate ENLAFQS” value is 0.0774, the “area with substrate ENLFFQS” value is 0.0829, the “area with substrate ENLGFQS” value was determined as 0.0804 and the “area with substrate ENLHFQS” value came to 0.0381. In addition, the “area with substrate ENLIFQS” value is 0.0643, the “area with substrate ENLKFQS” value was 0.0794, the “area with substrate ENLNFQS” value was 0.0663 and the “area with substrate ENLPFQS” value stood at 0.0497. Also, the “area with substrate ENLRFQS” value was found to be 0.0606, the “area with substrate ENLSFQS” value was determined as 0.0488, the “area with substrate ENLVFQS” value turned out to be 0.0952 and the “area with substrate ENLWFQS” value was determined as 0.0641.
Turning to MGESLFKGPRDYNPISSSICHLTNESDGHHTSLYGIGFGPFIITNKHLFRRNNGTLVVQSLHGVFKVKDTTTLQQHLVDGRDMIIIRMPKDFPPFPQKLKFREPQREERICLVTTNFQTKSMSSMVSDTSCTFPSGDGIFWKHWIQTKDGQCGSPLVSTRDGFIVGIHSASNFTNTNNYFTSVPKNFMELLTNQEAQQWVSGWRLNADSVLWGGHKVFMVKPEEPFQPVKEATQL [T30H], the “area with substrate ENLAFQS” value was found to be 0.0689, the “area with substrate ENLDFQS” value turned out to be 0.068, the “area with substrate ENLEFQS” value amounted to 0.0687 and the “area with substrate ENLFFQS” value was determined as 0.0835. For the same variant, the “area with substrate ENLHFQS” value amounted to 0.0673, the “area with substrate ENLIFQS” value was 0.0898, the “area with substrate ENLKFQS” value turned out to be 0.0785 and the “area with substrate ENLLFQS” value stood at 0.0829. The “area with substrate ENLNFQS” value turned out to be 0.0573, the “area with substrate ENLPFQS” value is 0.0631, the “area with substrate ENLQFQS” value was 0.0677 and the “area with substrate ENLRFQS” value amounted to 0.0758. The “area with substrate ENLSFQS” value amounted to 0.0586, the “area with substrate ENLVFQS” value was determined as 0.0529 and the “area with substrate ENLWFQS” value turned out to be 0.0449.
For MGESLFKGPRDYNPISSSICHLTNESDGHMTSLYGIGFGPFIITNKHLFRRNNGTLVVQSLHGVFKVKDTTTLQQHLVDGRDMIIIRMPKDFPPFPQKLKFREPQREERICLVTTNFQTKSMSSMVSDTSCTFPSGDGIFWKHWIQTKDGQCGSPLVSTRDGFIVGIHSASNFTNTNNYFTSVPKNFMELLTNQEAQQWVSGWRLNADSVLWGGHKVFMVKPEEPFQPVKEATQL [T30M], the “area with substrate ENLAFQS” value was determined as 0.0719, the “area with substrate ENLDFQS” value worked out at 0.0797, the “area with substrate ENLEFQS” value was 0.0725 and the “area with substrate ENLFFQS” value came out at 0.0978. In addition, the “area with substrate ENLHFQS” value was determined as 0.0907, the “area with substrate ENLIFQS” value worked out at 0.0927, the “area with substrate ENLKFQS” value is 0.0858 and the “area with substrate ENLLFQS” value amounted to 0.0902. The “area with substrate ENLQFQS” value stood at 0.0671, the “area with substrate ENLSFQS” value is 0.0685, the “area with substrate ENLVFQS” value was 0.0861 and the “area with substrate ENLWFQS” value was found to be 0.057.
Turning to MGESLFKGPRDYNPISSSICHLTNESIGHTTSLYGIGFGPFIITNKHLFRRNNGTLVVQSLHGVFKVKDTTTLQQHLVDGRDMIIIRMPKDFPPFPQKLKFREPQREERICLVTTNFQTKSMSSMVSDTSCTFPSGDGIFWKHWIQTKDGQCGSPLVSTRDGFIVGIHSASNFTNTNNYFTSVPKNFMELLTNQEAQQWVSGWRLNADSVLWGGHKVFMVKPEEPFQPVKEATQL [D27I], the “area with substrate ENLAFQS” value was found to be 0.0539, the “area with substrate ENLDFQS” value was 0.0493, the “area with substrate ENLEFQS” value is 0.0633 and the “area with substrate ENLFFQS” value is 0.068. Besides, the “area with substrate ENLGFQS” value stood at 0.0617, the “area with substrate ENLHFQS” value was found to be 0.0641, the “area with substrate ENLIFQS” value is 0.0657 and the “area with substrate ENLKFQS” value is 0.0626. Besides, the “area with substrate ENLMFQS” value was found to be 0.0393, the “area with substrate ENLPFQS” value worked out at 0.0547, the “area with substrate ENLRFQS” value worked out at 0.0643 and the “area with substrate ENLSFQS” value stood at 0.063. Besides, the “area with substrate ENLWFQS” value was 0.0715.
Turning to MGESLFKGPRDYNPISSSICHLTNESDGHTMSLYGIGFGPFIITNKHLFRRNNGTLVVQSLHGVFKVKDTTTLQQHLVDGRDMIIIRMPKDFPPFPQKLKFREPQREERICLVTTNFQTKSMSSMVSDTSCTFPSGDGIFWKHWIQTKDGQCGSPLVSTRDGFIVGIHSASNFTNTNNYFTSVPKNFMELLTNQEAQQWVSGWRLNADSVLWGGHKVFMVKPEEPFQPVKEATQL [T31M], the “area with substrate ENLAFQS” value is 0.0766, the “area with substrate ENLEFQS” value stood at 0.0671, the “area with substrate ENLFFQS” value amounted to 0.0795 and the “area with substrate ENLKFQS” value amounted to 0.0728. For the same variant, the “area with substrate ENLLFQS” value amounted to 0.0588, the “area with substrate ENLMFQS” value turned out to be 0.115, the “area with substrate ENLNFQS” value amounted to 0.0658 and the “area with substrate ENLPFQS” value stood at 0.0525. Further, the “area with substrate ENLQFQS” value was 0.0608, the “area with substrate ENLRFQS” value worked out at 0.0491 and the “area with substrate ENLSFQS” value is 0.0435.
As to MGESLFKGPRDYNPISSSICHLTNESDGHTTSLYGIGFGPFIITNKHLTRRNNGTLVVQSLHGVFKVKDTTTLQQHLVDGRDMIIIRMPKDFPPFPQKLKFREPQREERICLVTTNFQTKSMSSMVSDTSCTFPSGDGIFWKHWIQTKDGQCGSPLVSTRDGFIVGIHSASNFTNTNNYFTSVPKNFMELLTNQEAQQWVSGWRLNADSVLWGGHKVFMVKPEEPFQPVKEATQL [F49T], the “area with substrate ENLAFQS” value amounted to 0.0502, the “area with substrate ENLCFQS” value stood at 0.0532, the “area with substrate ENLDFQS” value worked out at 0.0744 and the “area with substrate ENLFFQS” value came to 0.0614. The “area with substrate ENLIFQS” value worked out at 0.065, the “area with substrate ENLKFQS” value came to 0.0626, the “area with substrate ENLLFQS” value came to 0.0655 and the “area with substrate ENLQFQS” value was found to be 0.0598. In addition, the “area with substrate ENLRFQS” value is 0.0621, the “area with substrate ENLSFQS” value stood at 0.0645, the “area with substrate ENLTFQS” value is 0.0627 and the “area with substrate ENLVFQS” value amounted to 0.075. For the same variant, the “area with substrate ENLWFQS” value was determined as 0.04.
As for MGESLFKGPRDYNPISSSICHLTNESDGHTTSLYGIGFGPFIITNKHLLRRNNGTLVVQSLHGVFKVKDTTTLQQHLVDGRDMIIIRMPKDFPPFPQKLKFREPQREERICLVTTNFQTKSMSSMVSDTSCTFPSGDGIFWKHWIQTKDGQCGSPLVSTRDGFIVGIHSASNFTNTNNYFTSVPKNFMELLTNQEAQQWVSGWRLNADSVLWGGHKVFMVKPEEPFQPVKEATQL [F49L], the “area with substrate ENLAFQS” value was determined as 0.106, the “area with substrate ENLDFQS” value turned out to be 0.0641, the “area with substrate ENLFFQS” value was found to be 0.0673 and the “area with substrate ENLGFQS” value was 0.0454. Also, the “area with substrate ENLHFQS” value was found to be 0.0401, the “area with substrate ENLKFQS” value is 0.061, the “area with substrate ENLLFQS” value was determined as 0.0703 and the “area with substrate ENLNFQS” value was 0.0713. The “area with substrate ENLPFQS” value is 0.063.
Take MGESLFKGPRDYNPISSSICHLTNESDGHTTSLYGIGFGPFIITNKHLNRRNNGTLVVQSLHGVFKVKDTTTLQQHLVDGRDMIIIRMPKDFPPFPQKLKFREPQREERICLVTTNFQTKSMSSMVSDTSCTFPSGDGIFWKHWIQTKDGQCGSPLVSTRDGFIVGIHSASNFTNTNNYFTSVPKNFMELLTNQEAQQWVSGWRLNADSVLWGGHKVFMVKPEEPFQPVKEATQL [F49N]: the “area with substrate ENLAFQS” value is 0.0783, the “area with substrate ENLCFQS” value came to 0.058, the “area with substrate ENLDFQS” value is 0.0532 and the “area with substrate ENLEFQS” value was found to be 0.0613. Besides, the “area with substrate ENLHFQS” value is 0.0667, the “area with substrate ENLKFQS” value is 0.0639, the “area with substrate ENLLFQS” value was found to be 0.0553 and the “area with substrate ENLNFQS” value was determined as 0.0584. In addition, the “area with substrate ENLRFQS” value was 0.057, the “area with substrate ENLTFQS” value was 0.061, the “area with substrate ENLVFQS” value was 0.048 and the “area with substrate ENLWFQS” value turned out to be 0.0246.
